Target: IL-10 receptor on human immune cells (human)
Assay: cell-based or functional assay

- STAT3 phosphorylation potency, B cells: 0.057 pM
- STAT3 phosphorylation potency, CD4 Central Memory T cells: 80.6 pM
- STAT3 phosphorylation potency, Monocytes: 0.06 pM
B1: scIL-10:CL:CH1:Fc (scIL10 3aa linker) (Fc fusion, from a related filing)
chain: SPGQGTQSENSCTHFPGNLPNMLRDLRDAFSRVKTFFQMKDQLDNLLLKESLLEDFKGYLGCQALSEMIQFYLEEVMPQAENQDPDIKAHVNSLGENLKTLRLRLRRCHRFLPCENKSKAVEQVKNAFNKLQEKGIYKAMSEFDIFINYIEAYMTMKIRNGGGSPGQGTQSENSCTHFPGNLPNMLRDLRDAFSRVKTFFQMKDQLDNLLLKESLLEDFKGYLGCQALSEMIQFYLEEVMPQAENQDPDIKAHVNSLGENLKTLRLRLRRCHRFLPCENKSKAVEQVKNAFNKLQEKGIYKAMSEFDIFINYIEAYMTMKIRNGGGGSGGGGSRTVAAPSVFIFPPSDEQLKSGTASVVCLLNNFYPREAKVQWKVDNALQSGNSQESVTEQDSKDSTYSLSSTLTLSKADYEKHKVYACEVTHQGLSSPVTKSFNRGECGGGGSGGGGSGGGGSGGGGSASTKGPSVFPLAPSSKSTSGGTAALGCLVKDYFPEPVTVSWNSGALTSGVHTFPAVLQSSGLYSLSSVVTVPSSSLGTQTYICNVNHKPSNTKVDKRV[omitted - human IgG1 Fc]

Reference: patent publication US20220340678A1
